Consider 35 compounds from PubChem BioAssay AID1508624 (National Center for Advancing Translational Sciences (NCATS), 2021).

The campaign covered roughly 48,000 compounds. About 120 (0.25%) were called active. Roughly 4% stayed inconclusive and do not appear here. Calls follow the shape of the dose curve; as a rule, active = well fitted activation curve with a large enough effect; inconclusive = small, poorly fitted or top-dose-only effect, or another doubt; inactive = no such curve, though single readings can be large or run the other way. The list shows a part of the results.

The nature of the assay: Primary qHTS for Identification of Small Molecule Activators of Huntingtin-Antisense Promoter Activity. Also: nearly all actives have a fitted effect of over 55% in size. As to conditions: HEK293 HTT-AS promoter firefly luciferase reporter, 24 h. The text has this: Assay Provider: Russell L. Margolis M.D.
Department Neurology, Johns Hopkins University School of Medicine, Baltimore, MD
Huntington's Disease (HD) is a neurodegenerative disorder caused by a CAG repeat expansion in exon 1 of huntingtin (HTT). While there are currently no disease-modifying treatments for HD, recent efforts have focused on development of nucleotide-based therapeutics to lower HTT expression. As an alternative to siRNA or oligonucleotide methods, we hypothesized that suppression of HTT expression might be accomplished by small molecules that either (1) directly decrease HTT expression by suppressing HTT promoter activity or (2) indirectly decrease HTT expression by increasing the promoter activity of HTT-AS, the gene antisense to HTT that appears to inhibit expression of HTT.
We developed and employed a high throughput screen for modifiers of HTT and HTT-AS promoter activity using luminescent reporter HEK293 cells; of the 52,041 compounds tested, we identified 898 replicable hits. We used a rigorous stepwise approach to assess compound toxicity and the capacity of the compounds to specifically lower huntingtin protein in 5 different cell lines, including HEK293 cells, HD lymphoblastoid cells, mouse primary neurons, HD iPSCs differentiated into cortical-like neurons, and HD hESCs. We found no compounds which were able to lower huntingtin without lowering cell viability in all assays, though the potential efficacy of a few compounds at non-toxic doses could not be excluded.
SEQUENCE No. (1, 2, 3, etc.); […] (e.g., Cells, Incubation, Reagent, etc.); VALUE and DESCRIPTION.
1; Reagent; 4 uL; 2,500 Hek293 luciferase reporter cells per wells
3; Compound; 23 nL; Control inhibitor / compound library
5; Reagent; 2.5 uL; Firefly Luc reagent; Dual-Glo Luciferase Reporter Assay System (Promega)
6; Time; 10 min; room temperature incubation
7; Detection; Luminescence; FLuc
NOTES (numbers refer to sequence above)
1; High-throughput screening, measuring luminescence from a Hek293 luciferase reporter, was performed in 1,536 well white-walled tissue-culture treated plates. 2,500 cells were plated in 4 µL of Opti-MEM per well using a Multidrop Combi Reagent Dispenser (ThermoFisher).
2; Assay plates were cultured for 24 hours.
3; Control inhibitor (PTC124; final concentration of 50 uM) and compound library (at final concentrations of 460 nM - 57.5 uM) were added to the assay plate using the Kalypsis Pintool Robotic System equipped with 1536 pinheads.
4; Cells were then incubated for 24 hours at 37 degrees C prior to luminescence measurements.
5; In all cases, luminescence was measured using the Dual-Glo Luciferase Reporter Assay System (Promega) following the manufacturer's instructions.
6; Room temperature incubation.
7; Luminescence signal was obtained using the PerkinElmer ViewLux plate reader. Results were normalized to vehicle control (0% activity) and zero RLU (-100% activity).

The mark [1] stands for this setting: at 57.5 µM (top of the series) unless noted.

As for `O=C(c1ccc2c(c1)N(Cc1ccc(F)cc1)C(=O)c1ccccc1S2)N1CCC2(CC1)OCCO2`, the activity change, positive = activation under setting [1] is inactive: -21.1%.
As for `O=[N+]([O-])c1cc([As](=O)(O)O)ccc1O`, the activity change, positive = activation under setting [1] is inactive: -3.85%.
For `CC[C@@H]1[C@@H](C)O[C@@](O)([C@@H](C)[C@H](O)[C@H](C)[C@H]2OC(=O)C=CC=C[C@@H](C)[C@@H]([C@@H](C)[C@@H](O)[C@H](C)[C@@]3(O)C[C@H](O[C@H]4C[C@H](O)[C@H](O)[C@H](C)O4)[C@H](CC)[C@@H](C)O3)OC(=O)C=CC=C[C@@H]2C)C[C@H]1O[C@H]1C[C@H](O)[C@H](O)[C@H](C)O1`, the activity change, positive = activation under setting [1] was inactive: -93.9%.
Turning to `Cc1nnc(NC(=O)c2cccn(Cc3cccc(F)c3)c2=O)s1`, the activity change, positive = activation under setting [1] was inactive: 2.56% [at 57.5 µM, percent change from vehicle, -100% = no light].
For `O=c1oc2ccccc2c(O)c1Cc1c(O)c2ccccc2oc1=O`, the activity change, positive = activation under setting [1] is inactive: -20%.
For the compound `Cc1ccc(OCC(=O)Nc2ccc(Cl)cc2C(=O)c2ccccc2)cc1C`, the activity change, positive = activation under setting [1] was inactive: 0.264%.
The same measure, in the same setting: under `CC1N=C(N)OC1c1ccccc1` (stereo unspecified) stands inactive: -4.19% [at 116 µM]; under `O=c1[nH]c2ccccc2n1C1CCN(Cc2ccc(-c3[nH]c4cc5ncnc5cc4nc3-c3ccccc3)cc2)CC1`, inactive: -3.34%.
Same read-out and setting: under `COc1cccc(-c2nn3c(=O)cc(CN4CCN(C(=O)COc5ccccc5C)CC4)nc3s2)c1` stands inactive: -3.97%; under `CCCCCCCCc1ccc(O)cc1`, inactive: 6.24% [at 116 µM].
As to `Oc1cc(Cl)ccc1Oc1ccc(Cl)cc1Cl`, the activity change, positive = activation is inactive: -35.2% (at 57.5 µM (top of the series)) and inactive: -59.6% (at 116 µM (top of the series)).
On to `CC1(C)C(C=C(Cl)Cl)C1C(=O)OC(C#N)c1cccc(Oc2ccccc2)c1` (stereo unspecified), for which, under setting [1], the activity change, positive = activation is inactive: -2.57% [at 57.5 µM, percent change from vehicle, -100% = no light].
Still for that read-out and setting: under `CCCCC12CN3CC(C)(CN(C1)C3c1ccccn1)C2=O` (stereo unspecified) stands inactive: -10.8% [at 57.5 µM, percent change from vehicle, -100% = no light].
With `CCOc1ccc(CN(CCc2ccc3c(c2)OCO3)Cc2ccc(C)cc2)cc1`, under setting [1], the activity change, positive = activation is inactive: -14.8%.
As for `CC(C)Cc1nc2cccnc2n1C1CCNCC1`, the activity change, positive = activation under setting [1] is inactive: -9.94% [at 57.5 µM, percent change from vehicle, -100% = no light].
Same read-out and setting: under `CCN(CC)C(C)C(=O)c1ccccc1` (stereo unspecified) stands inactive: -1.83%; under `Cc1cccc(-n2nc(C)c3c2NC(=O)CSC3c2ccccc2Cl)c1` (stereo unspecified), inactive: -33.5% [at 57.5 µM, percent change from vehicle, -100% = no light].
Regarding `COc1cc(CC#N)cc(OC)c1OC`, under setting [1], the activity change, positive = activation was inactive: -0.047%.
The same measure, in the same setting: under `CCC(C)C(C)(COC(N)=O)COC(N)=O` (stereo unspecified) stands inactive: -5.04%; under `Cc1cccc(CN2C(=O)CN=C(c3ccccc3)c3ccccc32)c1`, inactive: -44.5%; under `COc1ccc(-n2c(/C=C/c3cccc(F)c3)nc3ccccc3c2=O)cc1Cl`, inactive: -2.85%.
`Cc1ccc(NC(=O)Cn2cc(C(=O)c3ccccc3)c3ccccc32)c(C)c1`: under setting [1], the activity change, positive = activation is inactive: -35.7%.
Turning to `O=C(N[C@@H]1N=C(c2ccccc2F)c2cccc3c2N(CC3)C1=O)c1cc2ccccc2[nH]1`, under setting [1], the activity change, positive = activation is inactive: -10.8%.
For `COc1cccc(C2SCC(=O)Nc3c2c(C)nn3-c2ccc(C)c(Cl)c2)c1OC` (stereo unspecified), the activity change, positive = activation under setting [1] was inactive: -36.9%.
The same measure, in the same setting: to `CC(=O)Nc1ccc(OC[C@](C)(O)C(=O)Nc2ccc([N+](=O)[O-])c(C(F)(F)F)c2)cc1` belongs inactive: -21.8%; to `COc1ccc2c3c1O[C@H]1[C@H](O)CC[C@H]4[C@@H](C2)N(C)CC[C@@]341`, inactive: -5.97% [at 116 µM]; to `CC(C)=CCN1CC[C@@]2(C)c3cc(O)ccc3C[C@@H]1[C@@H]2C`, inactive: -21.5% [at 116 µM].
The same measure, in the same setting: to `Cc1cccc(-c2nn3c(=O)cc(CN4CCN(C(=O)COc5ccc(Cl)cc5)CC4)nc3s2)c1` belongs inactive: -1.33%.
With `O=c1c2ccccc2nc(/C=C/c2ccccc2F)n1-c1cccc(O)c1`, the activity change, positive = activation under setting [1] is inactive: -16.9%.
With `CCc1nc(SC)ncc1C(=O)Nc1ccc(Cl)cc1C(=O)c1ccccc1`, under setting [1], the activity change, positive = activation is inactive: -18.7% [at 57.5 µM, percent change from vehicle, -100% = no light].
Consider `O=C(Nc1ccc2c(c1)OCO2)c1cccn(Cc2cccc([N+](=O)[O-])c2)c1=O`, for which, under setting [1], the activity change, positive = activation is inactive: -18.7%.
On the same count and under the same terms, to `C[C@](O)(COc1ccc(C#N)cc1)C(=O)Nc1ccc(C#N)c(C(F)(F)F)c1` belongs inactive: -33%; to `CC=C(C)C(=O)N[C@@H](c1ccccc1)[C@@H](O)C(=O)O[C@H]1C[C@@]2(O)[C@@H](OC(=O)c3ccccc3)[C@@H]3[C@]4(OC(C)=O)CO[C@@H]4C[C@H](O)[C@@]3(C)C(=O)[C@H](OC(C)=O)C(=C1C)C2(C)C`, inactive: -33.9%.
With `COc1ccc(NC(=O)CCc2nc(C3=CCN(Cc4cccc(Cl)c4)CC3)no2)c(OC)c1`, the activity change, positive = activation under setting [1] was inactive: -25.9%.
The same measure, in the same setting: to `O=S1(=O)N(Cc2ccccc2Cl)CCCN1Cc1ccccc1Cl` belongs inactive: -25.8% [at 57.5 µM, percent change from vehicle, -100% = no light].
